The values below come from PMC7819943, “Rice protein-binding microarrays: a tool to detect cis-acting elements near promoter regions in rice”.

Some of the results follow.

In this experiment the target is T1, OsWOX13 (Oryza sativa, UniProt Q5QMM3 1-267).
T1 sequence: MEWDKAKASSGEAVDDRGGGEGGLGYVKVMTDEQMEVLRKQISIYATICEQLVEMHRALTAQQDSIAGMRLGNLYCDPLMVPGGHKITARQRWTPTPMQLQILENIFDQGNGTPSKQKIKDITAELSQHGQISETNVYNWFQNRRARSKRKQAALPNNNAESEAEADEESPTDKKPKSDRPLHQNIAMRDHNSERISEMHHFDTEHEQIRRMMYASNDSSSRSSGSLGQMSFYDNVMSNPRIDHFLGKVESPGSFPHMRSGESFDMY
Briefly: protein-binding microarray (RPBM); PBS, 2% BSA, 51.3 ng/ul salmon testes DNA, 50 uM zinc acetate, 200 nM TF, 25 C, 1 h; high values mean tight binding. Particulars: protein: recombinant; tags: N-terminal polyhistidine and DsRed monomer fusion (pET32a); label: CyDye5-dUTP incorporated in the synthesized complementary strand; 3' TTTTT single-stranded linker to array surface; dsDNA, one strand shown. The essentials:
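Ni–NTA purification followed expression in E. coli BL21-CodonPlus of transcription factors fused N-terminally to a polyhistidine tag and DsRed. At 200 nM in PBS with 2% BSA, salmon testes DNA and 50 µM zinc acetate, the protein was incubated for 1 h at 25 °C with a custom Agilent array that had been primer-extended with Cy5-dUTP and blocked with 2% BSA. After washing, the array was read on an Axon 4000B scanner. The binding signal is per-feature fluorescence intensity in arbitrary units.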
For “TGAAATAAAATTTTGAAAATTAATTTTGAAGTTGACTTTGCGGAGTCACCTAGTGCAG”, the binding signal is 13300 fluorescence intensity (a.u.).
Next, “GCTCGATTGCCTTTTCATCATTCACATTGTTCTTCTTCTTCGGAGTCACCTAGTGCAG”: 11600 fluorescence intensity (a.u.).
In the case of “GCTTGATATAGATCATTAGATCGTTCCCATTGGTTGGCTACGGAGTCACCTAGTGCAG” it was 8120 fluorescence intensity (a.u.).
Next, “ATCATGGCAAATGATTGAAACTTTGAAGTAACGTTGGTGCCGGAGTCACCTAGTGCAG”: 38800 fluorescence intensity (a.u.).
Take “GTGCATTTCTGATTAAATATGTTGCATTGCAGCTATTGGCCGGAGTCACCTAGTGCAG”: the binding signal was 3750 fluorescence intensity (a.u.).
On to “TCTAAATTTGTAGGCACTCTACATGAGGCAAGTCGTTACACGGAGTCACCTAGTGCAG”, for which the binding signal is 3900 fluorescence intensity (a.u.).
In the case of “GATTCAATGATGGATTTAATAAAACTAATTTGGTATTGCTCGGAGTCACCTAGTGCAG” it was 18700 fluorescence intensity (a.u.); in that of “TCACTAACAGATGTACCACTGTTTTATAAATTCTAAAATGCGGAGTCACCTAGTGCAG”, 8690 fluorescence intensity (a.u.).
In the case of “TCTCGAATTAATTAGGGTATCATATTATTCTCATATGAAACGGAGTCACCTAGTGCAG” it was 15000 fluorescence intensity (a.u.).
Next, “TTGATTCAATCAACATATTTGATTCACAAATTTAGTTGCTCGGAGTCACCTAGTGCAG”: 50100 fluorescence intensity (a.u.); “TATGGATCTAGATTTTCAATTACATTGATAACATTTGAATCGGAGTCACCTAGTGCAG”: 3300 fluorescence intensity (a.u.); “GCTTAAACAGCAAGATAGTCATGATTAGGCCAAAGATATCCGGAGTCACCTAGTGCAG”: 6570 fluorescence intensity (a.u.).
For “ACCAAATTTAGTCGTTAACAGTACTTTATGTACTTAGAGACGGAGTCACCTAGTGCAG”, the binding signal is 6830 fluorescence intensity (a.u.).
In the case of “AATTTTGCCTGATGAATTGAGAATTGACTCGTAACTTGGACGGAGTCACCTAGTGCAG” it was 4150 fluorescence intensity (a.u.).
Next, “CATCAAATTTGACTAAGTTTAATGACAAATATAATAATATCGGAGTCACCTAGTGCAG”: 3460 fluorescence intensity (a.u.); “TTTTATGTTATATATATATAATTATTTGCAAGAAATTCATCGGAGTCACCTAGTGCAG”: 3590 fluorescence intensity (a.u.); “CTTTAATTAATTTAACTGCCATTATTATGTACTTTCAGAGCGGAGTCACCTAGTGCAG”: 63200 fluorescence intensity (a.u.).
In the case of “GCACGATTAATTATATATTAATAACTATTATATATTTAAACGGAGTCACCTAGTGCAG” it was 6940 fluorescence intensity (a.u.); in that of “ATGTATATTAATTACTAGCCAAATGGTTAGCATGATTACTCGGAGTCACCTAGTGCAG”, 10900 fluorescence intensity (a.u.).
Consider “CTAGATGATTGGCTATCATCACCTGTTCACAATCTTATGTCGGAGTCACCTAGTGCAG”, for which the binding signal is 61900 fluorescence intensity (a.u.).
In the case of “GACTTTATTTCAATAATTTGAATTTGAATTTCAAATTATGCGGAGTCACCTAGTGCAG” it was 8160 fluorescence intensity (a.u.).
In the case of “TCTATATATGACTGACATATGGATCCTTTGACATGTAGATCGGAGTCACCTAGTGCAG” it was 3330 fluorescence intensity (a.u.); in that of “GAAAGCAATAAATTAGAGTGATAAATACCGGGAGAGTGTGCGGAGTCACCTAGTGCAG”, 6500 fluorescence intensity (a.u.); in that of “ATATTAATTTGGTATTGGAGTATACCACTGAGCAATTGCACGGAGTCACCTAGTGCAG”, 14700 fluorescence intensity (a.u.).
In the case of “TATTCTGCGTTTAATTGAGCACATGCATATGTATGTCGCACGGAGTCACCTAGTGCAG” it was 3290 fluorescence intensity (a.u.).
“ATTGCAAATTTGTTGGTGTACATGAACATGAAATTCTAGTCGGAGTCACCTAGTGCAG”: the binding signal was 4010 fluorescence intensity (a.u.).
Next, “CAAACTGAGATTATAATGCTTAAGGGTGAGTTCGAGGGATCGGAGTCACCTAGTGCAG”: 3970 fluorescence intensity (a.u.); “CGTGGAGAGGGGAGGGGAGGGAGAGGGAGACCGGGCGCATCGGAGTCACCTAGTGCAG”: 3920 fluorescence intensity (a.u.); “CACAATTCTCCAATCATATACCGACTGTTGTACGTATATTCGGAGTCACCTAGTGCAG”: 8830 fluorescence intensity (a.u.).
For “TGGTTGATGAGATTGATGAAGTGGTGGAGATGTTGACGAACGGAGTCACCTAGTGCAG”, the binding signal was 37100 fluorescence intensity (a.u.).
In the case of “GTACCCATACCCATATAATTGACTTGTAGTATTTATAGTTCGGAGTCACCTAGTGCAG” it was 3160 fluorescence intensity (a.u.).
Next, “ATTTGATTATTTCCTAAGCCCTGTTTCCTTCGTTCTTAAGCGGAGTCACCTAGTGCAG”: 40600 fluorescence intensity (a.u.); “TTTTATTTGTACCGATTTCTGATTTGCACAGACATGTTTCCGGAGTCACCTAGTGCAG”: 5380 fluorescence intensity (a.u.); “CTTGATTCCCTGCAGATTTCCATGCGCAGCCAGCATCTTGCGGAGTCACCTAGTGCAG”: 4090 fluorescence intensity (a.u.).
Take “GGAGATTAATTACAAGGATTAAATAGAAAACGGGTAGAGGCGGAGTCACCTAGTGCAG”: the binding signal was 42300 fluorescence intensity (a.u.).
Consider “ATAGCCGTTTTGATTGATTCCTAAGTGATCCAAAGCTTGACGGAGTCACCTAGTGCAG”, for which the binding signal was 30900 fluorescence intensity (a.u.).
In the case of “ACAAACACTGATTAAATTAAATTAAACACTGAGAAAATTCCGGAGTCACCTAGTGCAG” it was 9580 fluorescence intensity (a.u.).
Next, “GTATAGGGGAGAGGGTGGGCGGGTGATCACTGGGTGGGTGCGGAGTCACCTAGTGCAG”: 4700 fluorescence intensity (a.u.); “GCTAATAAACTGGCCTGTAACCCGCGCATTTCGCACCCATCGGAGTCACCTAGTGCAG”: 12100 fluorescence intensity (a.u.).
Next, “CTAATCACTACAATTTCAATCCCCTTCAATTTCCCTCTCTCGGAGTCACCTAGTGCAG”: 3820 fluorescence intensity (a.u.).
“ATTAATTTGAGACGAAGCTCATGATTTTCTAACAAAATATCGGAGTCACCTAGTGCAG”: the binding signal is 4060 fluorescence intensity (a.u.).
Next, “CATGATTTGATAATATGGTGCTACAGTAAATTTTGCTAGTCGGAGTCACCTAGTGCAG”: 48100 fluorescence intensity (a.u.).
